Measurements published in PubChem BioAssay AID1346428 (National Center for Advancing Translational Sciences (NCATS), 2018).
The campaign covered roughly 48,000 compounds. About 1,200 (2.5%) were called active. Another 2% or so got no clear call; they are omitted.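 The calls were made as follows: active = activation of at least 60% and not above a set upper limit (about 1 call in 100 departs from these limits); inconclusive = activation of 40% to 60%, or above that upper limit; inactive = activation under 40%.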 This is one part of the list.

Target: Probable G-protein coupled receptor 32 (Homo sapiens) (UniProt O75388)
Experiment: qHTS for Agonists of Human Resolvin D1 Receptor DRV1; also: 0% is about no effect
Details: CHO-K1 GPR32 beta-arrestin PathHunter luminescence, 90 min; at 76.9 µM; hits give high values; zero percent set by DMSO-only wells
In short: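 Luminescent readout of beta-Gal complementation quantifies ligand-induced beta-arrestin association with GPR32 in CHO-K1 cells; 90 min compound incubation at 37 °C, detection 1 h at room temperature.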

UniProt O75388, sequence (O75388 whole entry, looked up): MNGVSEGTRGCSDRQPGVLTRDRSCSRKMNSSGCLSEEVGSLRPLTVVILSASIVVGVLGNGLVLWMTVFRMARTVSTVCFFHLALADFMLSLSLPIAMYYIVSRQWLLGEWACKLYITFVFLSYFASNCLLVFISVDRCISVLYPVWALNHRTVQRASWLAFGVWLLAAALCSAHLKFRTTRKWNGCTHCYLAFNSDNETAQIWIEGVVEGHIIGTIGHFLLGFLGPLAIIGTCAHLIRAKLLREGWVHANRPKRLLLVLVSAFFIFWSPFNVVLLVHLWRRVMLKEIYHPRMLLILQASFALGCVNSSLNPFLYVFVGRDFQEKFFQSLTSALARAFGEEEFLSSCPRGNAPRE

activation, inactive:
Cc1ccc(CNC(=O)c2cc(-c3ccc(C)c(C)c3)nc3ccccc23)cc1 -14.7%
Cc1ccc(C(=O)O)cc1NC(=O)c1nsc2ccccc12 -13.8%
Cc1ccc(NC(=O)C(=O)NCC(c2cccnc2)N2CCN(Cc3ccccc3)CC2)cc1Cl (centres undefined) -3.47%
Cc1cc(Cl)ccc1NC(=O)CSc1nc2c(c(=O)[nH]1)CCC2 -16.2%
COC(=O)c1sc(N2C(=O)c3oc4ccc(C)cc4c(=O)c3C2c2ccc(OC)cc2)nc1C (centres undefined) -2.86%
CCCOc1ccc(Oc2nc(NC)nc(N3CCOCC3)n2)nn1 -9.54%
COc1ccc(CNC(=O)Cn2c(=O)n3nc(-c4ccc(OC)cc4)nc3c3ccccc32)cc1 27.7%
O=C(O)/C=C(\CC(=O)O)C(=O)O 27.6%
CC(=O)c1cccc(NS(=O)(=O)c2ccc3[nH]c4c(c3c2)CCCCC4)c1 31.6%
COc1ccc(NC(=O)C(c2ccccc2)N(C)C(=O)/C=C\c2ccc3c(c2)OCO3)cc1 (centres undefined) -27.8%
Cc1cn2c(=O)c(S(=O)(=O)Nc3ccc(OC(F)(F)F)cc3)c(C)nc2s1 16.9%
COc1ccc(-c2noc(CSc3nnc(C)n3-c3ccc(F)cc3)n2)cc1 -0.748%
COc1ccc(C(CC(=O)Nc2cc(Cl)c(OC)cc2OC)N2Cc3ccccc3C2=O)cc1 (centres undefined) -26.4%
COc1ccc(-c2c(C)nn3c(C(F)(F)F)cc(-c4ccc(C)cc4)nc23)cc1 -8.13%
CCOc1ccc(C(=O)Nc2ccc3nc(Nc4cccc(C(F)(F)F)c4)cc(C)c3c2)cc1OCC 10.5%
Cc1ccccc1OCC(=O)Nc1c(C(=O)Nc2ccccc2F)oc2ccccc12 2.94%
CC(=O)NNc1ncnc2c1cnn2-c1ccccc1 0.0923%
CCOc1ccc(NC(=O)N2CC3CCCN3c3ccccc32)cc1 (centres undefined) -4.33%
Cc1ccccc1NS(=O)(=O)c1ccc2[nH]cc(C(=O)NCCc3ccccc3)c(=O)c2c1 -12.5%
COC(=O)c1cnc(N2CCN(c3ccc(OC)cc3)CC2)c2ccccc12 -22.9%
CCCN(C(=O)c1cn(C)c(=O)c2cc(OC)c(OC)cc12)c1ccc(CC)cc1 -13%
COc1ccc(NC(=O)C2=CC(c3ccco3)=NS(=O)(=O)N2C)cc1OC -12.4%
CCc1ccccc1NC(=O)CCCSc1nc(-c2ccco2)cc(C(F)(F)F)n1 -12%
CCOCCc1nn2c(=O)cc(COC(=O)c3ccc(NC(=O)C4CCCCC4)cc3)nc2s1 18.8%
COc1cc(C)c(Cc2cnc(N)nc2N)cc1OC -39.8%
CCN(c1ccccc1)S(=O)(=O)c1nnc(NC(=O)c2ccccc2OC)s1 2.68%
O=C(CS(=O)(=O)c1cccc2nsnc12)N1CCN(c2ccccc2F)CC1 -15.1%
Cc1cc(NC(=O)c2ccc3c(c2)N(Cc2cccc(Cl)c2)C(=O)c2ccccc2S3(=O)=O)ccc1Br -1.33%
COc1ccccc1CNc1nc2ccc(C)cc2n2nnnc12 -10.1%
Cc1nn(-c2ccccc2)c(OC(=O)c2ccccc2Br)c1S(=O)(=O)c1ccccc1 34.5%
CC1=C(C(=O)Nc2ccccc2Cl)C(c2cccc(O)c2)n2ncnc2N1 (centres undefined) -4.58%
O=C1CC(c2c(Cl)cccc2Cl)c2c(ccc3ccccc23)N1 (centres undefined) 20.3%
O=C(Nc1ccccc1C(F)(F)F)c1ncoc1-c1ccco1 -9.77%
COc1cc(C2C(=O)N(C3CCCCC3)CC(=O)N2CCc2ccccc2)ccc1OC(C)C (centres undefined) -13%
CCCCN(C)CCCNC(=O)C1CCN(S(=O)(=O)CCC)CC1 0.498%
COc1ccc(CNC(=O)c2cc(Nc3ccccc3C)nc3ccccc23)cc1 -14.3%
CCN(CC)c1ccc(CNCCCSc2nnnn2C)cc1 3.62%
COc1ccc(Cl)cc1NC(=O)CSc1cn(CC(=O)N2CCCCC2)c2ccccc12 -15%
CCOc1ccc(CN2C(=O)c3ccccc3Sc3ccc(C(=O)NCc4ccco4)cc32)cc1 -27.9%
Cc1oc(-c2cccc(Cl)c2)nc1CN1CCC(C(=O)NC(C)c2ccccc2)CC1 (centres undefined) 6.77%
C[C@H]1C[C@H](O)c2ccsc2S1(=O)=O -8.17%
COCCNc1nc2c(c(=O)n(C)c(=O)n2C)n1Cc1c(F)cccc1Cl 18.5%
Cc1oc2ncn(C)c(=O)c2c1C(=O)N1CCN(c2cccc(C(F)(F)F)c2)CC1 -5.92%
CC1CCN(C(c2ccccc2)c2sc3nc(-c4ccco4)nn3c2O)CC1 (centres undefined) -17.4%
O=C(CSc1nc(-c2ccccc2)cn1-c1ccccc1F)Nc1ccc(F)cc1 -25.5%
COc1ccc(CNS(=O)(=O)c2cc3c(cc2Cl)N(C(C)=O)CCO3)cc1 4.31%
COc1ccc(NC(=O)CSc2nc(-c3cc(OC)c(OC)c(OC)c3)[nH]c2-c2ccc(F)cc2)cc1 -18.9%
Cc1ccc(Nc2cc(C(=O)NCCc3ccccc3)c3ccccc3n2)c(C)c1 28.9%
COc1cc(NC(=O)CN2CCN(S(=O)(=O)c3ccc(Br)cc3)CC2)cc(OC)c1 -2.38%
O=C(Cn1nc(-c2ccc(Cl)cc2)c2ccccc2c1=O)Nc1cccc(Br)c1 -0.674%
CCCOC(=O)c1cccc(NC(=O)c2c(-c3ccccc3Cl)noc2C)c1 -24.6%
CCCCC(=O)Nc1c(C(=O)N2CCN(c3ccccc3F)CC2)oc2ccccc12 -34.4%
O=C(Nc1cccc(F)c1)C1CCCN(S(=O)(=O)c2cccc3cccnc23)C1 (centres undefined) 10.9%
COc1ccc(CNC(=O)C2CCN(c3nnc(-n4c(C)ccc4C)s3)CC2)c(OC)c1 -21.7%
Cc1cccc(C2CN(C)CCc3c2cc(O)c(O)c3Cl)c1 (centres undefined) 2.98%
Cc1nc2ccc(S(=O)(=O)N(C)CC(=O)Nc3ccc(C(C)C)cc3)cc2s1 -7.43%
Cc1ccccc1Cn1c(COc2ccc(Cl)cc2)nc2ccccc21 -9.78%
CC1CCN(S(=O)(=O)c2ccc3c(c2)c(=O)c(C(=O)N2CCN(c4cccc(Cl)c4)CC2)cn3C)CC1 -5.82%
Cc1ccc(-n2ncc(C(=O)NCCN3CCc4ccccc4C3)c2C2CCN(C(=O)OC(C)(C)C)CC2)cc1C -31.5%
COc1ccc(NC(=O)CN2CCN(CC(=O)Nc3ccccc3F)CC2)c(OC)c1 -15.5%
O=c1c2cc3c(cc2nc2sc(Nc4ccccc4)nn12)OCO3 -3.77%
Cc1cccc(C)c1NC(=O)CN1CCN(CCCC(c2ccc(F)cc2)c2ccc(F)cc2)CC1 -10.3%
COc1ccc(-c2nc(SCC(=O)NC(C)CCc3ccccc3)n[nH]2)cc1 (centres undefined) 17.3%
Cc1nc(N=Nc2cc(S(=O)(=O)O)c3cc([N+](=O)[O-])cc(S(=O)(=O)O)c3c2)c(COP(=O)(O)O)c(C=O)c1O -22.6%
COc1ccc(S(=O)(=O)c2c(Nc3cccc(C)c3C)sc(C(=O)c3ccccc3)c2N)cc1 -30.4%
COC(=O)c1ccc(NC(=O)CSc2cn(CC(=O)N3CCCCC3)c3ccccc23)cc1 2.22%
CCN(c1ccccc1)S(=O)(=O)c1c(C)nc2scc(C)n2c1=O -3.06%
COc1ccc(N2CCN(c3ncnc4c3cnn4-c3ccc(F)cc3)CC2)cc1 -11%
CCOC(=O)c1c(C)oc2nc(C)nc(NCCc3ccc(OCC)c(OCC)c3)c12 -20.7%
COc1ccc(C(=O)NCC(c2ccc3c(c2)OCO3)N2CCN(C)CC2)cc1 (centres undefined) 5.54%
O=S(=O)(c1ccc(F)cc1)N(CC(O)Cn1c2ccccc2c2ccccc21)c1ccccc1 (centres undefined) 19.9%
CCOc1ccc(CCNC(=O)c2nnc(Cc3ccc(Cl)cc3Cl)o2)cc1OCC -3.04%
COc1cc(OC)c(N(C)C(=O)c2c(C)oc3ncnc(N4CCCCC4)c23)cc1Cl -6.56%
COc1ccc(CNC(=O)C2CCCN(S(=O)(=O)c3ccc4c(ccn4C)c3)C2)c(OC)c1 (centres undefined) -18.6%
Cc1ccc2c(=O)cc(C(=O)NCc3ccccc3)oc2c1 44.2%
CCOc1ccc2nc(N3CCN(C(=O)c4ccco4)CC3)sc2c1 21.4%
CCn1cc(/C=C(\NC(=O)c2ccc(C)cc2)C(=O)NCCCn2ccnc2)c2ccccc21 26.6%
CCOC(=O)c1cc2c(=O)n3ccccc3nc2n(CC2CCCO2)c1=NC(=O)c1ccccc1C (centres undefined) -1.99%
COc1ccc(NC(C)=O)cc1NC(=O)C1(c2cccs2)CCOCC1 -12.4%
Cc1ccc(C)c(N2CCN(C(=O)Cc3c(C(=O)O)c(C)cn3C)CC2)c1 -4.29%
Cc1cc(C)cc(-n2c(SCC(=O)N3CCC(C)CC3)nc3c([nH]c4ccccc43)c2=O)c1 -7.11%
CCc1ccc(-n2nc(CO)c(C(=O)NCCc3ccccc3)n2)cc1 -5.6%
O=C(CSc1nc2c([nH]c3ccccc32)c(=O)n1-c1ccc(F)cc1)N1CCc2ccccc21 -4.86%
COc1cccc(C(=O)N2CCCCC2CCN2CCCCC2)c1 (centres undefined) -12.9%
